The campaign covered roughly 410,000 compounds. About 6,400 (1.6%) were called active. Inconclusive results, whose numbers are uncertain, are shown with a selection of clear calls. The call rests on the fitted dose curve; in most records, active means well fitted inhibition curve with a large enough effect; inconclusive means small, poorly fitted or top-dose-only effect; inactive means no such curve, though single readings can be large or run the other way. Potencies of inconclusive entries are left out as doubtful fits.
Biological target: Glucagon-like peptide 1 receptor (Homo sapiens) (UniProt P43220)
Chain of UniProt P43220 (P43220 whole entry, looked up): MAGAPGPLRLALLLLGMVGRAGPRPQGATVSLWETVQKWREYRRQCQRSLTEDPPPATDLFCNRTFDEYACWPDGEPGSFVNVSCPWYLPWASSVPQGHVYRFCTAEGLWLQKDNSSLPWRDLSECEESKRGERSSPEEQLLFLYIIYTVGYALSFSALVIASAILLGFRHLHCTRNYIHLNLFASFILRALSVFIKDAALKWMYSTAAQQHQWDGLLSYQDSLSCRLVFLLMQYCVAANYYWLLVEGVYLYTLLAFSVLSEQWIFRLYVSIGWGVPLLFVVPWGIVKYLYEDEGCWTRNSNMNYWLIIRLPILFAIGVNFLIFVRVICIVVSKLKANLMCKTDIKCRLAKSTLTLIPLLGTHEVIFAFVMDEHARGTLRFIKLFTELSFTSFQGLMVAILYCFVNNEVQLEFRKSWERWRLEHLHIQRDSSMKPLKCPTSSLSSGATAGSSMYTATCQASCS
Assay: qHTS of GLP-1 Receptor Inverse Agonists (Inhibition Mode); further: nearly all actives have a fitted effect of over 55% in size
Settings: HEK293 GLP-1R CRE-luciferase, luminescence, 24 h, GLP-1R form is constitutively active; activity change, negative = inhibition: at 38.3 µM (top of the series) unless noted
Procedure, shortened: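 HEK293 cells stably co-expressing a cAMP-responsive luciferase reporter and constitutively active GLP-1R were seeded, incubated 12 h, then exposed to compounds for 24 h at 37 C. Luminescence was read 12 min after detection reagent; inverse agonists lower signal.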
On the % scale 0 is the no-effect control and ±100 the full control effect; potency means the concentration at half of the fitted maximal effect; tags describe the fitted curve by direction and shape.

Row | Structure (SMILES) | Potency | activity change, negative = inhibition
1 | CCc1ccc(C(O)c2ncc(-c3cccc4ccccc34)[nH]2)cc1 (stereo not given) | inconclusive [inhibitor, single point] | –
2 | CCc1ccc(C(=O)c2cn(CC(=O)Nc3ccc4c(c3)OCO4)c3ccc(CC)cc3c2=O)cc1 | – | inactive: 2.5%
3 | COc1ccc(-c2nn3c(-c4ccc(F)cc4)nnc3s2)cc1 | – | inactive: 96.5%
4 | Cc1cccc(Oc2nc(-c3ccccc3)cc(C)c2S(C)(=O)=O)c1C | inconclusive [inhibitor, single point] | –
5 | Cc1n[nH]c(C)c1S(=O)(=O)N(CC(=O)Nc1ccc2c(c1)OCCO2)c1ccc(C(C)C)cc1 | inconclusive [inhibitor, single point] | –
6 | CN1CCN(NC(=O)c2cc(-c3ccc(Cl)s3)nc3ccccc23)CC1 | inconclusive [inhibitor, full curve, poor fit] | –
7 | Cc1ccc(Cl)cc1NC(=S)NN | inconclusive [inhibitor, single point] | –
8 | O=S(=O)(NCC(c1ccco1)N1CCc2ccccc2C1)c1ccc(F)cc1 (stereo not given) | inconclusive [inhibitor, partial curve, poor fit] | –
9 | COCCCNc1c2c3c(cccc3[nH]c1=O)C(=O)c1ccccc1-2 | inconclusive [inhibitor, full curve, poor fit] | –
10 | Cc1cc(N2CCC(C)CC2)nc(-c2ccccc2O)n1 | inconclusive [inhibitor, single point] | –
11 | COc1ccc(C(=O)O/N=C(\N)c2ccc(OC)c(OC)c2)cc1 | – | inactive: 2.26%
12 | Cc1cc(Cl)ccc1OCCCC(=O)Nc1cc(S(=O)(=O)N2CCOCC2)ccc1N1CCOCC1 | inconclusive [inhibitor, single point] | –
13 | COc1ccc(C(=O)c2c[nH]c(C(=O)NCc3ccco3)c2)cc1 | – | inactive: 7.15%
14 | CCN1CCN(c2cc(C)c3cc(NC(=O)c4cccs4)ccc3n2)CC1 | inconclusive [inhibitor, partial curve, poor fit] | –
15 | COc1cccc(OCC(O)CN2CCN(c3ncccn3)CC2)c1 (stereo not given) | – | inactive: -0.19%
16 | CCCCN(CC(=O)Nc1c(C)cccc1CC)C(=O)SCC | inconclusive [inhibitor, partial curve, poor fit] | –
17 | Cc1ccc(Nc2nc3nonc3nc2Nc2cccc(C(F)(F)F)c2)cc1Cl | inconclusive [inhibitor, full curve, poor fit] | –
18 | CNc1c(NC(=O)c2ccc(OC)c(OC)c2)c(=O)oc2ccccc12 | – | inactive: -3.07%
19 | COC(=O)NNC(=S)Nc1ccc(Br)cc1 | – | inactive: 26.1%
20 | CC(C)=CCC/C(C)=C/CNC(=O)C[C@H]1C[C@H](C(=O)N2CCCCC2)[C@@]2(C)c3[nH]c4cc(-c5ccco5)ccc4c3CCN2C1=O | inconclusive [inhibitor, single point] | –
21 | CC(C)c1ccc(CC(=O)N2CCC2(C)C(=O)NS(=O)(=O)c2ccc(F)cc2F)cc1 (stereo not given) | inconclusive [inhibitor, single point] | –
22 | CC(C)NC(=O)C1CCN(C2CCN(Cc3nc(C(C)C)cs3)CC2)CC1 | inconclusive [inhibitor, full curve, poor fit] | –

Row | Structure (SMILES) | Potency | activity change, negative = inhibition
23 | Cc1cccc(-n2c(SCC(=O)N3CCN(c4ccccn4)CC3)nnc2N2CCOCC2)c1 | inconclusive [inhibitor, single point] | –
24 | CCN(CC)C(=O)Cn1c(=O)cc(C)c2c(C)nn(-c3cccc(Cl)c3C)c21 | inconclusive [inhibitor, partial curve] | –
25 | CC(OC(=O)c1ccccc1Oc1ccccc1)C(=O)NC1CC1 (stereo not given) | inconclusive [inhibitor, partial curve, poor fit] | –
26 | O=C1Nc2ccc3c(c2C1=Cc1cc2c(cc1Br)OCO2)OCO3 | inconclusive [inhibitor, full curve, poor fit] | –
27 | Brc1cccc(OCCN2CCCCC2)c1 | – | inactive: -5.44%
28 | O=c1cc(-c2ccccc2)[nH]n1-c1nc2ccccc2[nH]1 | inconclusive [inhibitor, single point] | –
29 | COc1ccc(CN(C)C(=O)c2ccc(Oc3ccccc3)cc2)cc1F | inconclusive [inhibitor, single point] | –
30 | O=C(CN1C(=O)COc2ccccc21)c1cccc(Cl)c1 | inconclusive [inhibitor, single point] | –
31 | CCCCOc1cccc(C(=O)Nc2ccccc2N2CCCC2)c1 | – | inconclusive: -72.9% [inhibitor]
32 | CCN(C1CCCCC1)S(=O)(=O)CCNC(=O)c1ccc2c(c1)OCO2 | inconclusive [inhibitor, single point] | –
33 | O=C(CCc1c[nH]c2ccccc12)NCCOc1ccccc1 | inconclusive [inhibitor, single point] | –
34 | COc1ccccc1OCCn1c(NC(=O)c2ccccc2Cl)nc2ccccc21 | inconclusive [inhibitor, single point] | –
35 | Cc1ccc(NC(=O)C(=O)NCC(c2cccnc2)N2CCN(Cc3ccccc3)CC2)cc1C (stereo not given) | – | inactive: 7.68%
36 | COc1cccc(-n2c(SCC(=O)N3c4ccccc4CC3C)nnc2-c2ccco2)c1 (stereo not given) | inconclusive [inhibitor, partial curve, poor fit] | –
37 | O=Cc1ccc(N2CCCC2)c([N+](=O)[O-])c1 | – | inactive: -0.881%
38 | CN(C)S(=O)(=O)c1cccc(NC(=O)COC(=O)c2cc3ccccc3oc2=O)c1 | – | inactive: 18%
39 | CC1CCN(C(=S)c2cn(Cc3ccccc3F)c3ccccc23)CC1 | active: 10 µM | –
40 | COc1ccccc1-n1nnnc1S(=O)(=O)Cc1ccc(Cl)cc1 | inconclusive [inhibitor, single point] | –
41 | Cc1ccc2c(c1)[C@H]1[C@H](CO2)[C@H](c2ccccc2)[C@]2(C)C(=O)Nc3ccc(Cl)cc3C(=O)N12 | active: 6.31 µM | –
42 | O=C(NCC1CCCO1)c1cccc2c1C(=O)c1ccc(N3CCC(Cc4ccccc4)CC3)cc1S2(=O)=O (stereo not given) | inconclusive [inhibitor, partial curve, poor fit] | –
43 | Cc1nn(-c2ccccc2)c(NC(=O)c2ccccc2)c1Br | inconclusive [inhibitor, single point] | –
44 | CCOC(=O)CN1C(=O)COc2ccc(C(C)(C)C)cc21 | inconclusive [inhibitor, partial curve, poor fit] | –

Row | Structure (SMILES) | Potency | activity change, negative = inhibition
45 | C[C@@H]1CN([C@H](C)CO)C(=O)c2c(c3ccccc3n2C)-c2ccccc2CO[C@H]1CN(C)Cc1ccc(Oc2ccccc2)cc1 | inconclusive [inhibitor, single point] | –
46 | C#CCOCCOCCOCCNc1nc(N2CCN(C(=O)CCCCCCCCCCNC(=O)Cn3cc(CCCCCN)nn3)CC2)nc(N2CCN(C(=O)CCCCCCCCCCNC(=O)[C@H]([C@@H](C)CC)n3cc(CCCCCN)nn3)CC2)n1 | inconclusive [inhibitor, single point] | –
47 | COc1ccc(-c2cc3c(c4c2ccn4C)C2CCC3C2)cn1 (stereo not given) | inconclusive [inhibitor, partial curve, poor fit] | –
48 | c1ccc(Cn2nnnc2C(c2cccs2)N2CCCCCC2)cc1 (stereo not given) | inconclusive [inhibitor, single point] | –
49 | Cn1c(=O)cc(SCC(=O)NCCCN2CCN(c3ccc(F)cc3)CC2)c2ccccc21 | inconclusive [inhibitor, single point] | –
50 | Cc1ccc(C(=O)NCC(=O)NCCSc2ccc(Br)cc2)cc1 | inconclusive [inhibitor, single point] | –
51 | COc1ccc(OCC(O)CN(C2CCCCC2)C2CCCCC2)cc1 (stereo not given) | inconclusive [inhibitor, single point] | –
52 | Cc1ccc(NC(=O)/C=C/c2ccco2)nc1 | – | inactive: -59.1%
53 | Cc1ccccc1-c1nc(CS(=O)CC(=O)NC(C)CCc2ccccc2)c(C)o1 (stereo not given) | inconclusive [inhibitor, partial curve, poor fit] | –
54 | O=C(Nc1ccc2c(c1)OCO2)N1CCN(c2ccccc2Cl)CC1 | – | inactive: 0%
55 | O=C(NCCN1CCCCC1)Nc1cccc(C(F)(F)F)c1 | inconclusive [inhibitor, partial curve, poor fit] | –
56 | Cc1cc(Nc2ccccc2F)n2nc(-c3ccccc3)nc2n1 | – | inactive: 0.595%
57 | CCOC(=O)c1csc(NC(=O)CC2CCCC2)n1 | – | inactive: -2.42% [at 7.66 µM]
58 | COC(=O)c1ccc(Cl)cc1NC(=O)N1CC2CCCN2c2ccccc21 (stereo not given) | inconclusive [inhibitor, single point] | –
59 | CCOC(=O)[C@@H]1CSCCS(=O)(=O)N1 | – | inactive: 6.73%
60 | COc1ccc(CN2CCc3c(c(=O)n4ncc(C(=O)N5CCN(c6ccccc6OC)CC5)c4n3C)C2)cc1 | – | inactive: -29.1%
61 | CCN(c1ccccc1)S(=O)(=O)c1ccc(Cl)c(NC(=O)COC(=O)c2cccc(OC)c2O)c1 | inconclusive [inhibitor, single point] | –
62 | COc1cccc(N2CCN(C(=O)c3ccc(C)c(NC(=O)c4nsc5ccccc45)c3)CC2)c1 | – | inactive: 6.21%
63 | COc1ccc(NC(=S)NCCN2CCC(C)CC2)cc1Cl | inconclusive [inhibitor, partial curve, poor fit] | –
64 | Cc1cccc(C)c1NC(=O)Nc1nnc([C@H]2C[C@H](O)[C@@H](CO)O2)s1 | – | inactive: 24.6%
65 | C[C@H]1CN([C@@H](C)CO)C(=O)c2cc(NS(=O)(=O)c3ccc(Cl)cc3)ccc2O[C@@H]1CN(C)CC1CCCCC1 | inconclusive [inhibitor, single point] | –

Reference: PubChem BioAssay AID624417 (National Center for Advancing Translational Sciences (NCATS), 2012)
